{"source": "PubChem BioAssay AID1030", "about": "(National Center for Advancing Translational Sciences (NCATS), 2008)", "note": "Among all 220,000 compounds or so, about 16,000 (7.3%) were called active. The shares of active, inactive and inconclusive entries below differ from those in the screen. The call rests on the fitted dose curve; in most records, active means well fitted inhibition curve with a large enough effect (not every such curve was filed as active); inconclusive means small, poorly fitted or top-dose-only effect, or another doubt; inactive means no such curve, though single readings can be large or run the other way. Potencies of inconclusive entries are left out as doubtful fits. Potency means the concentration at half of the fitted maximal effect; tags describe the fitted curve by direction and shape."}
{"target": "Aldehyde dehydrogenase 1A1 (Homo sapiens) (UniProt P00352)", "sequence (P00352 whole entry, looked up)": "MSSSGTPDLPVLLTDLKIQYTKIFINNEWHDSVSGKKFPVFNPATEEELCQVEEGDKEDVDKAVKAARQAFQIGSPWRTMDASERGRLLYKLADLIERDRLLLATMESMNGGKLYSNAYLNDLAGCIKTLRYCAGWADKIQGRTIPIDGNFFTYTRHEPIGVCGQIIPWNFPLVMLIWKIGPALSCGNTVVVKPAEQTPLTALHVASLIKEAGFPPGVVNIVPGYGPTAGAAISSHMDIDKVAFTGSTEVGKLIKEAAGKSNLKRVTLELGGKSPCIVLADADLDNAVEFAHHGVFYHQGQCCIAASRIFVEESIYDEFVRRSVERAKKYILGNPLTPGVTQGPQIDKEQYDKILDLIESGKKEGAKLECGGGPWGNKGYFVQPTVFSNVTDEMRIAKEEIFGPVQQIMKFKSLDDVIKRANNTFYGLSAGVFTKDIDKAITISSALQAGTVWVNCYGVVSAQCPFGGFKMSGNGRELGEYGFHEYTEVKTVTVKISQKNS", "experiment": "qHTS Assay for Inhibitors of Aldehyde Dehydrogenase 1 (ALDH1A1)", "conditions": "Purified ALDH1A1, NADH fluorescence, propionaldehyde substrate; series mostly up to 75.3 µM"}
{"smiles": "CCOC(=O)NC(=O)/C(C#N)=C(/C)N(C)C", "Potency": "inconclusive [inhibitor, single point]"}
{"smiles": "CCOC(=O)c1nn(-c2cccc(C)c2)c2nc(-c3ccccc3)c(C#N)c(=O)n12", "Potency": "inconclusive [inhibitor, partial curve]"}
{"smiles": "CCCNC(=O)C1CCN(c2cc(-c3ccccc3)nc3ncnn23)CC1", "Potency": "inactive"}
{"smiles": "COc1ccc(NC(=S)N2CCN(c3ccc([N+](=O)[O-])cc3)CC2)cc1OC", "Potency": "inactive"}
{"smiles": "c1coc(-c2nc3nc4ccccc4nc3n2CC2CCCO2)c1", "note": "(stereo not drawn)", "Potency": "inconclusive [inhibitor, partial curve]"}
{"smiles": "CCCCC(=O)Nc1ccc(C(=O)NNC(=S)NC(=O)c2ccco2)cc1", "Potency": "inconclusive [inhibitor, single point]"}
{"smiles": "CC(=O)NC(=S)Nc1ccc(NC(=O)COc2ccc(C(C)C)cc2)cc1", "Potency": "inconclusive [inhibitor, single point]"}
{"smiles": "CN1C(=O)CCC1(O)c1ccccc1", "note": "(stereo not drawn)", "Potency": "inconclusive [inhibitor, single point]"}
{"smiles": "NC(=O)C1CCN(S(=O)(=O)Cc2ccccc2Cl)CC1", "Potency": "inactive"}
{"smiles": "Cc1cnc(NC(=O)c2cc3c(s2)CCCC3)s1", "Potency": "inconclusive [inhibitor, single point]"}
{"smiles": "Cc1cccc(OCC(=O)O/N=C(\\N)c2ccc(Cl)cc2)c1", "Potency": "inconclusive [inhibitor, single point]"}
{"smiles": "COc1ccc(Nc2ncc3c(n2)CC(c2ccc(C)cc2)CC3=O)cc1", "note": "(stereo not drawn)", "Potency": "inconclusive [inhibitor, partial curve]"}
{"smiles": "CCc1ccc(OCCCOc2ccc(C=O)cc2)cc1", "Potency": "inconclusive [inhibitor, full curve]"}
{"smiles": "COc1ccccc1NC(=O)CSc1ncn[nH]1", "Potency": "inconclusive [inhibitor, single point]"}
{"smiles": "CCOc1ccc(NS(=O)(=O)c2ccc3[nH]cc(C(=O)N(CC)CC)c(=O)c3c2)cc1", "Potency": "inconclusive [inhibitor, single point]"}
{"smiles": "Cn1c(CS(=O)Cc2c(Cl)cccc2Cl)nnc1SCc1ccc(Cl)cc1", "note": "(stereo not drawn)", "Potency": "inconclusive [inhibitor, single point]"}
{"smiles": "O=[N+]([O-])c1ccc(S(=O)(=O)N/N=C/c2cccs2)cc1", "Potency": "inconclusive [inhibitor, single point]"}
{"smiles": "COc1ccc(OC2C=CC(C#Cc3ccccc3)OC2CO)cc1", "note": "(stereo not drawn)", "Potency": "inconclusive [inhibitor, single point]"}
{"smiles": "COc1cc(C(=S)N2CCOCC2)ccc1OS(=O)(=O)c1ccc(NC(C)=O)cc1", "Potency": "inactive"}
{"smiles": "CCCOc1ccc(/C(O)=C2/C(=O)C(=O)N(CCCOC)C2c2cccnc2)cc1", "note": "(stereo not drawn)", "Potency": "inactive"}
{"smiles": "CCC(C)NC(=S)N1CCN(Cc2ccccc2)CC1", "note": "(stereo not drawn)", "Potency": "inactive"}
{"smiles": "Cc1ccc(C)n1-c1ccc(C(=O)O)cc1", "Potency": "inconclusive [inhibitor, single point]"}
{"smiles": "O=C(/C=C/c1ncc(C(F)(F)F)cc1Cl)OCc1ccccc1", "Potency": "inconclusive [inhibitor, single point]"}
{"smiles": "CC(C)NC(=O)CC(c1ccccc1)c1cc(Br)ccc1O", "note": "(stereo not drawn)", "Potency": "inactive"}
{"smiles": "Cc1cc(NC(=O)CN2C(=O)NC3(CCCCC3C)C2=O)no1", "note": "(stereo not drawn)", "Potency": "inactive"}
{"smiles": "O=[N+]([O-])c1nn(-c2ccc3c(c2)OCCO3)n(O)c1=NCCC1=CCCCC1", "Potency": "inconclusive [inhibitor, single point]"}
{"smiles": "CC1=C(C(=O)OCC2CCCO2)C(c2ccc(C)cc2)C2=C(CCCC2=O)N1", "note": "(stereo not drawn)", "Potency": "inactive"}
{"smiles": "COc1ccc(/C=N/NC(=O)c2cc(-c3ccc(C)cc3C)nc3ccccc23)cc1COC(C)=O", "Potency": "inconclusive [inhibitor, single point]"}
{"smiles": "COC(=O)Cc1c(C)c2c(O)cc(C)cc2oc1=O", "Potency": "inactive"}
{"smiles": "Nc1nonc1C(=Nc1ccc(Br)cc1)NO", "Potency": "inactive"}
{"smiles": "CN1C=CC2=C(C#N)C(N)C(C#N)(C#N)C(c3ccccc3)C2C1", "note": "(stereo not drawn)", "Potency": "inconclusive [inhibitor, single point]"}
{"smiles": "CN(C(=O)/C=C/c1cnc2ccccc2c1)C1CCCCC1", "Potency": "inconclusive [inhibitor, single point]"}
{"smiles": "N#C/C(=C/c1ccc(OCc2ccccc2)cc1)C(=O)NC1CCCCC1", "Potency": "inconclusive [inhibitor, single point]"}
{"smiles": "C/C(=N\\NC(=O)c1nc2ccccn2c1C)c1cc2ccccc2o1", "Potency": "inactive"}
{"smiles": "O=C(COc1ccc(NC(=O)c2ccccc2[N+](=O)[O-])cc1)c1ccc(F)cc1", "Potency": "inactive"}
{"smiles": "COCCn1c(=O)c(-c2ccccc2)nc2cncnc21", "Potency": "inconclusive [inhibitor, partial curve]"}
{"smiles": "CCn1c(C)nc2cc(C(=O)N/N=C/c3ccc(OC)cc3)ccc21", "Potency": "inactive"}
{"smiles": "CCC1=C2CC[C@H]3C(=O)N(CC)C(=O)[C@H]3[C@H]2[C@@]2(Cc3ccccc3)C(=O)N(CC3CC3)C(=O)N2C1=O", "Potency": "inactive"}
{"smiles": "COc1ccc(CCN2CCCn3c2nc2c3c(=O)n(Cc3ccccc3F)c(=O)n2C)cc1OC", "Potency": "active: 3.55 µM"}
{"smiles": "CC(Cc1cccs1)NC(=S)Nc1ccc(Cl)c(Cl)c1", "note": "(stereo not drawn)", "Potency": "inconclusive [inhibitor, single point]"}
{"smiles": "Cc1ccc(N2CCN(C(=O)c3ccccc3)CC2)c(C)c1", "Potency": "inactive"}
{"smiles": "Cn1c(N)c(C(=O)CSc2ccccn2)c(=O)n(C)c1=O", "Potency": "inactive"}
{"smiles": "Cc1nc(-c2ccccc2)sc1C(=O)/C=C/N(C)C", "Potency": "inconclusive [inhibitor, single point]"}
{"smiles": "Cc1cc(C)nc(SCC(=O)Nc2nonc2N)n1", "Potency": "inconclusive [inhibitor, single point]"}
{"smiles": "CCc1c(C)[nH]c(=S)c(C#N)c1C", "Potency": "inconclusive [inhibitor, single point]"}
{"smiles": "CC(=O)NCCNc1nc(-c2ccccc2Cl)nc2ccccc12", "Potency": "inconclusive [inhibitor, single point]"}
{"smiles": "CC(C)NC(=O)N1CCCC2(CCN(C(=O)c3cccc(F)c3)CC2)C1", "Potency": "inactive"}
{"smiles": "Cc1onc(-c2ccccc2Cl)c1C(=O)N1CCN(c2nc3ccccc3s2)CC1", "Potency": "active: 14.1 µM"}
